Sequences and labels used below:
T1: UNK ZnF1-3 (human, UniProt Q9C0B0 31-174)
T1 sequence: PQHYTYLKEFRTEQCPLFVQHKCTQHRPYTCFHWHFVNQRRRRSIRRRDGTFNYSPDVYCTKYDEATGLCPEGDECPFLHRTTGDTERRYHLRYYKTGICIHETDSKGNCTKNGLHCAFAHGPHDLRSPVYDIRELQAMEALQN

B1: chr11:86503612:86503613:+_ENSMUSG00000072582_ENSMUST00000108022|mus_mus|motif|central (ssRNA)
RNA: GGGAGUUCUACAGUCCGACGAUCUUACUGACAGGCUCCAUAGUCUUCGGACAGAAUCUCCAUCAAGCAAAAGCUUAUCGGGUAAAGUUUUAGGUGGCCAGUAACUUCAUCAAUUAGUUCUACUGGUCCUGGCCCAAUUCCCAGCAACAGAGGAUUGAGCAUCA
B2: chr13:31722580:31722581:-_ENSG00000120694_ENST00000320027|hu_hu|FALSE|FALSE (ssRNA)
RNA: GGGAGUUCUACAGUCCGACGAUCUGAAUCAUGGUUCCAGAUCAGAGAUAUUGGAAAAGGAACUGCAUCUGUGACGGAAAAUUCUCUAACUUUAAAUGCCGGGGAAAGUAUUGCACACUGUAAUGCACAUCCUCUGGCUACUGCCAACAGAGGAUUGAGCAUCA
B3: chr1:241675328:241675329:-_ENSG00000091483_ENST00000366560|hu_mus|motif|central (ssRNA)
RNA: GGGAGUUCUACAGUCCGACGAUCGCUUUUGUUAACAUGAUCAUUGGGGUGCACAGGCUUCUUGCUGCCAAGUUCACCUCCGGACAUUUCAAUUGCUCUGUUGCUAAUGACUUCAUUUACAUUCAUGUUUGUCUGGGUUCCUGACAACAGAGGAUUGAGCAUCA
B4: chr3:158399885:158399886:+_ENSG00000168827_ENST00000264263|hu_hu|FALSE|FALSE (ssRNA)
RNA: GGGAGUUCUACAGUCCGACGAUCUUCAUCUGAAAAUUCCAAUUUAGUGUAGUCCUCUGGGUCCAGAGGCUCCAGGACACCUAUUACUUUUCCAUACUGGCCUGCACCACCUGAUUGUUUUUUAUGUGUAAAGUCAAACGGGACCAACAGAGGAUUGAGCAUCA
B5: chr17:3197573:3197574:+_ENSMUSG00000046201_ENSMUST00000076734|mus_hu|FALSE|FALSE (ssRNA)
RNA: GGGAGUUCUACAGUCCGACGAUCCCUCACAAGAUUCUCUCUUAUAUCUACAGGAGGUCUUCCAAAAUGAUCCCUACCAUCUAGUGGAGGCCGUCCAGGACCUUCUCUUGGAUCUAUAGGCCGCCCAACCACAUCUCUAACAUCCAACAGAGGAUUGAGCAUCA
B6: chr1:55207850:55207851:+_ENSMUSG00000025979_ENSMUST00000162364|mus_hu|FALSE|FALSE (ssRNA)
RNA: GGGAGUUCUACAGUCCGACGAUCCCGAUGAUGAAAAUAAGCAUGUGAAAAUAUUCUGUAAAUCCUACGGCAUACUGAUCCUAGUUUCGCUACAGAUGAUUCCUUUAUGCUAACCCUGCUGGGAAAAUAUUUAUUGCUAUUCAGCAACAGAGGAUUGAGCAUCA
B7: chr7:44244176:44244177:+_ENSG00000106636_ENST00000223369|hu_mus|hu_hu_hu_mus_False|98_98 (ssRNA)
RNA: GGGAGUUCUACAGUCCGACGAUCACUGUCGCUCCGGACGUAGACGUGGCAAAGAUACUCUUGUUCUUUGACAGAAGCUCUGCUGCCUUUCCCCGAGCGUUCCACAAUCAGUUGACUUGUAAAGGUCAUGAAUUCCUGCACACUCAACAGAGGAUUGAGCAUCA
B8: chr7:106632155:106632156:-_ENSMUSG00000030744_ENSMUST00000032998|mus_mus|FALSE|FALSE (ssRNA)
RNA: GGGAGUUCUACAGUCCGACGAUCAACUUCCUCUUCUUGGAAAUCUGCACCGCCAUCUUGCAGCCGCGCGCCGCUGAAAGGAAAGGAAGUGGCUCGCGGGCGGAAGUAGGUAUAUAGGGCGGGAGCAAUGACGCCGCGCAGCGCCAACAGAGGAUUGAGCAUCA
B9: chr14:96998876:96998877:+_ENSG00000090060_ENST00000216277|hu_mus|FALSE|FALSE (ssRNA)
RNA: GGGAGUUCUACAGUCCGACGAUCGAUAAAGCUGGCAAGUUCUUGCUACUAGCAUAGCCCAGGAAACACCACCGAGGAAACCUAAUAUAUUGGAAUAGAUGUUGUGCCGUUUGGCCCACAGUUUGAUGGCUCUCAGAGUUAACCCAACAGAGGAUUGAGCAUCA
B10: chr7:140404665:140404666:+_ENSG00000090266_ENST00000247866|hu_mus|FALSE|FALSE (ssRNA)
RNA: GGGAGUUCUACAGUCCGACGAUCUGCUCCUACUCGUCCAGAGAGUUUACAGUGUCAGUCCUCGUCAUCAGGAGGGAUUCCCAGUUCUUCAUCUGUCCACUGUGAAGGAUCUGGAUAUGAAAAGUGACCCAGCACAGCAUCCGACAACAGAGGAUUGAGCAUCA
B11: chr5:64648305:64648306:+_ENSMUSG00000029174_ENSMUST00000119756|mus_hu|FALSE|FALSE (ssRNA)
RNA: GGGAGUUCUACAGUCCGACGAUCCUGCACAAUAUUGUGUCCGCUAAUGAGGUGGUUCUCAAUGUCGCUCUCCUCGAAGGAGCUGAAGAAGCCGCUGCUUCGGAGGCCCCCAUCCUGCAGCUCCUUCCUAAAGGCCAGCGAGCGCAACAGAGGAUUGAGCAUCA
B12: chr7:107556004:107556005:+_ENSG00000091140_ENST00000440410|hu_mus|FALSE|FALSE (ssRNA)
RNA: GGGAGUUCUACAGUCCGACGAUCUAUACGUUGAAAAUUUUUUGAUAUCUCCAUGUCAAUUCCAAUUCCACCCACAUGACCCAAAAAUUCAACUGCUGUCACAUCUGCACCAAGUCUUUGCCAAACUGAACCCAGUUCCACACCCAACAGAGGAUUGAGCAUCA
B13: chr3:135071361:135071362:-_ENSMUSG00000028165_ENSMUST00000029815|mus_mus|FALSE|FALSE (ssRNA)
RNA: GGGAGUUCUACAGUCCGACGAUCAAGGGGUUUUACUGCCUCAAAAUAUUGUUGAUGGCAAUUAUUUUUCAUAAUUCUUCUAAAAGCAGCAGAGUUCCACAAAAGGCCAAAAAAAUGGCAAAUGACUUCAAAUGAGCAAAACAACAACAGAGGAUUGAGCAUCA
B14: chr11:118268936:118268937:-_ENSMUSG00000025575_ENSMUST00000017620|mus_hu|FALSE|FALSE (ssRNA)
RNA: GGGAGUUCUACAGUCCGACGAUCCCGUGGGGCCCGGGGGUCCAGUGCCCGCACCACUAUGGGGCCCGGGACUGGGCUCCCUGUCCAGACCUCCAACCCAGGCACAGUUCCAAAAAGAACAAAACAAAACAAAAGUGCACUCCUCAACAGAGGAUUGAGCAUCA
B15: 98656908_98657028_562_3pUTR_ENSG00000147649_ENST00000336273|human|control|control (ssRNA)
RNA: GGGAGUUCUACAGUCCGACGAUCCGCGGCCGGCACGGCCGCCGCCUCCUCCCGCUUGCGGGGCGGGCUCCUCCGCUUUUUGCGGGCGCCGGCGCAAGCCGCGGCCCAGCCGUAGCCCAGCAGAAACAGCAGCAGCAGCCCGAGCAACAGAGGAUUGAGCAUCA
B16: chr16:94651144:94651145:+_ENSMUSG00000040785_ENSMUST00000117648|mus_hu|mus_mus_mus_hu_True|48_68 (ssRNA)
RNA: GGGAGUUCUACAGUCCGACGAUCAUUUUCUUGAAUCAAGUGGCGAAUAACAUAGUCCACUGCUUCAUGGACAAAAUUUCUGCUAGAAAAGCAUGUUGUAUAGUCUUCUGUGCUCAAAACUUUCCAAGAAAGCAAUUCUUUGAGCAACAGAGGAUUGAGCAUCA
B17: 7304751_7309597_396_CDS_ENSMUSG00000024764_ENSMUST00000025675|mouse|control|control (ssRNA)
RNA: GGGAGUUCUACAGUCCGACGAUCACAUUCAAUGGAGACAUUCAACCCAUUGCGGUCAUACUUCUUGAAGACUGGGAAUGCCUCCAGAGGGUCUCCAAGCCUGUUGGCAGCAUCCACUUUGGCACACACAGCAUCCAUGGCCGCCAACAGAGGAUUGAGCAUCA
B18: 41572908_41573028_6472_CDS_ENSG00000100393_ENST00000263253|human|control|control (ssRNA)
RNA: GGGAGUUCUACAGUCCGACGAUCGCAACCCUUGGUAUGCUGCACAACCCGCUUCAUCUUCUGGCAGGAUGGCAGUGAGCAAUUGGCAUUCCGACACUGGCAAGCAUGGACCAGAGACUGGAUGCAGCGCUGGAUACUCAGGCGCAACAGAGGAUUGAGCAUCA
B19: chr11:77336104:77336105:-_ENSG00000074201_ENST00000525064|hu_mus|hu_hu_hu_mus_False|68_78 (ssRNA)
RNA: GGGAGUUCUACAGUCCGACGAUCCUCACACAUUGCUGUGAACAUCGCCUCCAAUGCUGAUUUAUCACUAGGCACAAAUCGAAAUUCAGAAAUGGGUUCAACAUCAUCAUUGUCUUCCUCAUCUUCAUCAGAGAGAGGUUCUUUCAACAGAGGAUUGAGCAUCA
B20: 120819733_120819853_4936_CDS_ENSMUSG00000049878_ENSMUST00000056635|mouse|control|control (ssRNA)
RNA: GGGAGUUCUACAGUCCGACGAUCUGAACACCCUUUCUGACCGACAUCUUGUUCAGCUGGGCAAGUAGAAUCAGUGUUUGGGAGGGGCACACUGCUGUCUCCUGGGGCUCCAUUCUCUGUGUGCACCGAUUCACAGCUAGUACUCAACAGAGGAUUGAGCAUCA
B21: chr14:55515796:55515797:+_ENSMUSG00000022194_ENSMUST00000116476|mus_hu|FALSE|FALSE (ssRNA)
RNA: GGGAGUUCUACAGUCCGACGAUCAAAUAGGGACUCAUCUAAGGCCAAGGAAGUCCUCACUGACUCUUUGUCUGAGAACUCUAUAUACGCAAACCCUUUGGGAUGGCCACUAAAUUUGUCACACAGUAUGGUAACACGGUUGACCAACAGAGGAUUGAGCAUCA
B22: chr14:90870231:90870232:+_ENSG00000198668_ENST00000553542|hu_mus|FALSE|FALSE (ssRNA)
RNA: GGGAGUUCUACAGUCCGACGAUCGCGGAUCUCUUCUUCGCUAUCUGUGUCUUUCAUUUUUCUAGCCAUCAUAGUCAAGAACUCUGGGAAGUCAAUGGUGCCAUUGCCAUCAGCAUCCACUUCGUUGAUCAUAUCCUGCAGCUCCAACAGAGGAUUGAGCAUCA

Some of the results follow.

The values that follow come from article PMC12136788.

The assay has as its target T1, UNK ZnF1-3. In words: nsRBNS (natural sequence RNA bind-n-seq); RBNS binding buffer (assumed for nsRBNS): 25 mM Tris pH 7.5, 150 mM KCl, 3 mM MgCl2, 0.01% Triton X-100, 500 ug/ml BSA, 20 U/ml SUPERase-In, 4 C; UNK is unkempt and MSI1 is Musashi-1; names of the RNAs are library labels; protein concentration not given here; high values mean tight binding.
In turn, B1 came in with a binding signal of 1.8 enrichment R.
With B2 the figure was 1.23 enrichment R; with B3, 0.283 enrichment R; with B4, 0.928 enrichment R.
The result for B5 reads 0.871 enrichment R.
On to B6, for which the binding signal worked out at 1.13 enrichment R.
With B7 the figure was 0.724 enrichment R.
B8: the binding signal was 0.95 enrichment R.
Molecule B9 gave a binding signal of 1.42 enrichment R.
The result for B10 reads 1.35 enrichment R; that for B11, 0.523 enrichment R.
With B12 the figure was 1.17 enrichment R; with B13, 1.26 enrichment R; with B14, 0.916 enrichment R.
With B15 the figure was 0.9 enrichment R; with B16, 0.47 enrichment R.
For the molecule B17, the binding signal worked out at 0.933 enrichment R.
The result for B18 reads 0.995 enrichment R.
With B19 the figure was 0.926 enrichment R; with B20, 0.893 enrichment R; with B21, 1.09 enrichment R.
With B22 the figure was 0.479 enrichment R.
